Experimental data from the RNAGym collection of RNA variant scans (doi:10.7554/elife.90254).
Read counts are not given, so values of variants with three or more changes are uncertain.

B1: LINE1-full (parent)
chain: UACGUAGGUGGUUUUCCCCUGAUAGUGCUAAGGGGGCCUGGAAGUUUGGACUGGGCAGAGCUCAACACAGCGUGGCAAAGUGGCUGUGGCUAGACUGCCUCUCUGGAUUCCUCGUCACUCAGCAGGGCAUCUCUGAGAGAAAUGCC

Variants of: B1
Assay: self-cleavage, relative activity (ratio to wild type); higher = more cleavage; in vitro, sequencing; the parent is a self-cleaving ribozyme
For A65G U100C A121U, the self-cleavage was 0.21.
Work on U62C U108A A121G yielded a self-cleavage of 0.04.
With A69G A94U U108C the self-cleavage was 0.
A65G U115C A138G gave a self-cleavage of 0.14.
Variant A69U U85C U91C has a self-cleavage of 0.
Work on A67G U132C C146U yielded a self-cleavage of 0.8.
Work on A69G A107G A141U yielded a self-cleavage of 0.84.
Work on A67U U108C C116U yielded a self-cleavage of 0.2.
A65G U85A U96C showed a self-cleavage of 0.18.
A69G C90A A117G showed a self-cleavage of 0.06.
A65G A77U A107U gave a self-cleavage of 0.01.
Variant A67G U96C C123U has a self-cleavage of 0.
In the case of A65G C95U A117G, the self-cleavage is reported as 0.
With A64G U96C A142G the self-cleavage was 0.12.
In the case of U62C U115C C133A A140G, the self-cleavage is reported as 0.05.
For A65U G105A U143C, the self-cleavage was 0.17.
Variant A67G U85C U96A has a self-cleavage of 0.14.
For A64G A69G C103U, the self-cleavage was 0.
For U62C U85C A121U A136G A138G, the self-cleavage was 0.
A64G A79G A124G gave a self-cleavage of 0.
For U62C U132A U143A, the self-cleavage was 0.07.
A69U A78G A107G C128U gave a self-cleavage of 0.05.
In the case of C71U U112C U143G, the self-cleavage is reported as 0.95.
A69G U73G C95U gave a self-cleavage of 0.04.
Work on A67U U73C U85C U132A U134A yielded a self-cleavage of 0.
Variant A64G U73C U104A has a self-cleavage of 0.18.
In the case of A65G G89A U104A, the self-cleavage is reported as 0.05.
A65G U119A A141U U143C showed a self-cleavage of 0.52.
Variant G70U U85C A129G U130C has a self-cleavage of 0.
Work on C71U G88A A92G yielded a self-cleavage of 0.05.
For A67U A79G U132C, the self-cleavage was 0.14.
In the case of A67U U100C U102C A121G, the self-cleavage is reported as 0.
Variant A64U A94G G114U has a self-cleavage of 0.1.
Work on C68U U73C G125U yielded a self-cleavage of 0.02.
A69G A94G A124G A138G gave a self-cleavage of 0.
With A69C U109C A121G the self-cleavage was 0.27.
With A64G U109A U119C the self-cleavage was 0.35.
With G70A G106A U132C the self-cleavage was 0.17.
C68U A107G U115C showed a self-cleavage of 0.04.
A64G G93C U102C A117G G126A showed a self-cleavage of 0.
With A69U A77U G122A A142G U143C the self-cleavage was 0.05.
Variant A67G A94G A141G has a self-cleavage of 0.48.
Work on A65U A67G U85C U130C yielded a self-cleavage of 0.51.
Variant A67U A94G U115C C133A A141G has a self-cleavage of 0.
Variant C71U U109A C113U A141G A142G has a self-cleavage of 0.76.
A67U U112C A124U gave a self-cleavage of 0.13.
In the case of A69U G75A C128U, the self-cleavage is reported as 0.09.
Work on A65G U102C U134A yielded a self-cleavage of 0.11.
In the case of U62C U85C U108C U132C, the self-cleavage is reported as 0.37.
Variant A67U A107G U112C has a self-cleavage of 0.1.
In the case of A65G A77U A140G, the self-cleavage is reported as 0.
With A64U U85A A94G A129G the self-cleavage was 0.11.
In the case of C66U U104A U119C, the self-cleavage is reported as 0.05.
G72A A77U A94G showed a self-cleavage of 0.18.
A64U G72A U134C gave a self-cleavage of 0.42.
For C63A U87A U134A, the self-cleavage was 0.03.
A64G U132A C146U gave a self-cleavage of 0.39.
With A65U A79G U115C the self-cleavage was 0.2.
In the case of A64U U109C U115A U134C A140G, the self-cleavage is reported as 0.19.
A69G A79G U130C showed a self-cleavage of 2.3.
In the case of A65U A79G A138G, the self-cleavage is reported as 0.48.
A64G A69G A77U U81C showed a self-cleavage of 0.
A64U C98U U109A A136C gave a self-cleavage of 0.
Variant A64U U73G U81C has a self-cleavage of 0.33.
In the case of A69G U119A U132A A136U, the self-cleavage is reported as 1.79.
For U62C U100A A136U, the self-cleavage was 0.02.
A67U U96A C101U showed a self-cleavage of 0.04.
A67U A69G U100C showed a self-cleavage of 0.09.
A65U U73A A124U A141G gave a self-cleavage of 0.24.
With U62C U96C U112C U119A A141G the self-cleavage was 0.1.
Work on A69G U132A A140G yielded a self-cleavage of 1.28.
A67U C98U A142G showed a self-cleavage of 0.05.
For A69U C76U A79G U104A, the self-cleavage was 0.03.
In the case of C66A A78U A124U, the self-cleavage is reported as 0.02.
For A64U U115A A121G, the self-cleavage was 0.62.
In the case of A65G A78G A124G A136G, the self-cleavage is reported as 0.
For A64G A78G U96A A107G, the self-cleavage was 0.
With A64G U96A U134C A142U the self-cleavage was 0.09.
For A64G C103A U115A, the self-cleavage was 0.34.
A64G U112C A140G gave a self-cleavage of 0.3.
A64U U104A U132C U134C showed a self-cleavage of 0.
For A65G A117U U130C, the self-cleavage was 0.02.
Work on A69U C71U U102C C131U yielded a self-cleavage of 0.05.
With C63A A78G A107C A117U the self-cleavage was 0.11.
For A69C G93A A124G, the self-cleavage was 0.02.
In the case of A69G A79G A142G, the self-cleavage is reported as 0.
Work on A69G U130C A141G yielded a self-cleavage of 2.63.
With A65U U85C U87C U108C the self-cleavage was 0.
A67G U73A U87A showed a self-cleavage of 0.06.
A64G A77G A117G U143A showed a self-cleavage of 0.38.
In the case of A65G U104C U132C, the self-cleavage is reported as 0.
In the case of A64U U96A U134A, the self-cleavage is reported as 0.03.
A67G U112C A136G showed a self-cleavage of 0.
A64U A67G U115C showed a self-cleavage of 0.
Variant A65U A78G A92G has a self-cleavage of 0.14.
Work on A64C A79G U104A yielded a self-cleavage of 0.4.
C68U U73G U100G U109C A136G A142G gave a self-cleavage of 0.
Variant A65G G72U U130A has a self-cleavage of 0.
Work on U62C U96A A138U yielded a self-cleavage of 0.02.
With A65G U91C U134A A136U the self-cleavage was 0.33.
For A65G U104C G126A, the self-cleavage was 0.1.
Variant A65U A77G U96A A129G has a self-cleavage of 0.04.
In the case of A69U C116A A142G, the self-cleavage is reported as 0.02.
A64U A79G U100C A124U showed a self-cleavage of 0.07.
Variant A64U U104A U134C has a self-cleavage of 0.65.
Variant A65G U119C C133A has a self-cleavage of 0.04.
A67G C90U U130C showed a self-cleavage of 0.02.
With A64C U73C U100A A138U the self-cleavage was 0.34.
For A69G G125U U134C, the self-cleavage was 0.55.
In the case of C63U U100C A117G, the self-cleavage is reported as 0.56.
C63U A124G A136G showed a self-cleavage of 0.2.
C63U A140G U143A gave a self-cleavage of 0.27.
In the case of A67U U109A A141G, the self-cleavage is reported as 0.11.
Work on A69G G86A A129G A142G yielded a self-cleavage of 0.06.
In the case of A67G C84U U108C U119C U134A, the self-cleavage is reported as 0.
In the case of A65G U73C U85C, the self-cleavage is reported as 0.
For A64G U81A A107U A140G, the self-cleavage was 0.2.
With C71G A94G A117G the self-cleavage was 0.
A69G A136G A140G gave a self-cleavage of 0.92.
A67G A77G U87A U134C showed a self-cleavage of 0.19.
Work on A67G U108A U115C yielded a self-cleavage of 0.37.
Work on A69U G83A U108C yielded a self-cleavage of 0.01.
For A64U A69U U96A U100C U112A A136U, the self-cleavage was 0.
In the case of A64G U96A U100C, the self-cleavage is reported as 0.
For A65G A117U U119C A138G, the self-cleavage was 0.05.
Work on A64G U119A A129G yielded a self-cleavage of 0.
A64G A77G U130A showed a self-cleavage of 0.51.
For G70A A117U A142G, the self-cleavage was 0.17.
C63A U85C A94G gave a self-cleavage of 0.05.
With A64C A69G A94U A117U U119C the self-cleavage was 0.
In the case of C71U U85C U115A, the self-cleavage is reported as 0.05.
In the case of A64G A92U G114A U115C A117C A141G, the self-cleavage is reported as 0.86.
U62C U109A U115A showed a self-cleavage of 0.07.
Work on A65G U85A A117G yielded a self-cleavage of 0.
With A69U A124C U134A the self-cleavage was 0.07.
Variant A65G C66U A69G U143C has a self-cleavage of 0.07.
With A64G G82A U130A the self-cleavage was 0.24.
With A67G U100A A129U A141G the self-cleavage was 0.23.
Variant A65G U85A U87A A94U has a self-cleavage of 0.
In the case of A65U A121G U134C, the self-cleavage is reported as 0.15.
A64G U100C U134C gave a self-cleavage of 0.42.
For A65G A117U A121G, the self-cleavage was 0.
Variant C71A A107G A142G has a self-cleavage of 0.28.
A64G U91C A138U showed a self-cleavage of 0.
Work on A69G U102A U108C yielded a self-cleavage of 0.38.
With A64U A78G U104G A136C the self-cleavage was 0.24.
With A65G U109C A136G the self-cleavage was 0.19.
Work on A64G U104C A138G yielded a self-cleavage of 0.31.
For A69G A78U A141U, the self-cleavage was 0.9.
A65U U85C U134C gave a self-cleavage of 0.23.
Variant A64G U102C C145U has a self-cleavage of 0.52.
Variant A65G A77C U100C has a self-cleavage of 0.
With A64C A78G U96C the self-cleavage was 0.26.
A65G G83A A107G A129U showed a self-cleavage of 0.03.
A64U U85C U115C showed a self-cleavage of 0.09.
For A65G G70A A92U A129G, the self-cleavage was 0.04.
With A69G A117G U143G the self-cleavage was 0.
With A67U U85C U96C the self-cleavage was 0.
Work on C71G A77U G89C U91C U112A yielded a self-cleavage of 0.05.
Work on A69U A77U A121G A129G yielded a self-cleavage of 0.08.
For A64G G75C A78G U91A, the self-cleavage was 0.
Variant A67U G86A A92G U143A has a self-cleavage of 0.05.
Variant A65U U73G A140U has a self-cleavage of 0.26.
In the case of U62C U104C A107G, the self-cleavage is reported as 0.39.
C63U A65G A129G gave a self-cleavage of 0.
Work on U62C U109A A121U U134C yielded a self-cleavage of 0.02.
With A67U A78U U85C the self-cleavage was 0.03.
